The source of these data is the supplement of paper PMC4604168 (melanoma cell lines).

The list shows a part of the results. Most values come without repeats; read them as rough.
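Further: cell number obtained by counting DAPI-stained nuclei in high-throughput microscope images with image analysis software, screen run in 1,536-well plates.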

The experiment concerns COLO800. In words: cell count relative to DMSO control; melanoma cells; higher = more viable cells. Conditions: library dose: low library concentration; 72 h.
In the case of `CC(=O)O[C@@]12CO[C@@H]1C[C@H](O)[C@@]1(C)C(=O)[C@H](O)C3=C(C)[C@@H](OC(=O)[C@H](O)[C@@H](NC(=O)OC(C)(C)C)c4ccccc4)C[C@@](O)([C@@H](OC(=O)c4ccccc4)[C@H]21)C3(C)C` [Docetaxel] + c1cc(-c2cnn3cc(-c4ccc(OCCN5CCCCC5)cc4)cnc23)ccn1 [Dorsomorphin] (first compound 0.0001 µM, partner dose 0.4 µM), the cell count turned out to be 30.5%.

`CO[C@H]1C[C@@H]2CC[C@@H](C)[C@@](O)(O2)C(=O)C(=O)N2CCCC[C@H]2C(=O)O[C@H]([C@H](C)C[C@@H]2CC[C@@H](OCCO)[C@H](OC)C2)CC(=O)[C@H](C)/C=C(\C)[C@@H](O)[C@@H](OC)C(=O)[C@H](C)C[C@H](C)/C=C/C=C/C=C/1C` [everolimus] + COc1cc2ncnc(Nc3ccc(Oc4ccccc4)cc3)c2cc1OC [SrcI1] (first compound 0.02 µM, partner dose 2 µM) registered a cell count of 77.6%.

In turn, `Nc1ncn([C@H]2C[C@H](O)[C@@H](CO)O2)c(=O)n1` [decitabine] + COC(=O)c1sccc1S(=O)(=O)Nc1ccc(Nc2ccccc2)cc1OC [GSK0660] (first compound 0.1 µM, partner dose 1 µM) yielded a cell count of 73.7%. The value for `Nc1nc(F)nc2c1ncn2[C@@H]1O[C@H](CO)[C@@H](O)[C@@H]1O` [fludarabine] + CCN(CC)CCCCNc1ncc2cc(-c3cc(OC)cc(OC)c3)c(NC(=O)NC(C)(C)C)nc2n1 [PD173074] (first compound 0.2 µM, partner dose 0.1 µM) was 61.2%. `Nc1ccn([C@@H]2O[C@H](CO)[C@@H](O)C2(F)F)c(=O)n1` [gemcitabine] + Oc1nc(-c2ccc(C(F)(F)F)cc2)nc2c1CSCC2 [XAV939] (first compound 0.0004 µM, partner dose 2 µM) registered a cell count of 97.7%. `Nc1ccn([C@@H]2O[C@H](CO)[C@@H](O)C2(F)F)c(=O)n1` [gemcitabine] + COc1ccc2c(c1)CCC1C2CCC2(C)C(NCCCCCCN3C(=O)C=CC3=O)CCC12 [U73122] (first compound 0.0004 µM, partner dose 0.4 µM) gave a cell count of 94.2%.

On to `CC(=O)c1c(C)c2cnc(Nc3ccc(N4CCNCC4)cn3)nc2n(C2CCCC2)c1=O` [palbociclib] + O=c1cc(-c2cccc3c2Sc2ccccc2S3)oc(N2CCOCC2)c1 [KU55933] (first compound 0.04 µM, partner dose 1 µM), for which the cell count was 132%. The value for `CC(=O)c1c(C)c2cnc(Nc3ccc(N4CCNCC4)cn3)nc2n(C2CCCC2)c1=O` [palbociclib] + Cc1cc([N+](=O)[O-])ccc1NS(=O)(=O)c1cc(Cl)ccc1Cl [FH535] (first compound 0.04 µM, partner dose 1 µM) was 75.9%. The result for `Nc1ncn([C@H]2C[C@H](O)[C@@H](CO)O2)c(=O)n1` [decitabine] + CCCCCCCCCCCC1=C(O)C(=O)C=C(O)C1=O [Embelin] (first compound 0.1 µM, partner dose 1.2 µM) reads 76.7%; that for `Nc1ccn([C@@H]2O[C@H](CO)[C@@H](O)C2(F)F)c(=O)n1` [gemcitabine] + CCCCCCCCCCCC1=C(O)C(=O)C=C(O)C1=O [Embelin] (first compound 0.0004 µM, partner dose 1.2 µM), 72.3%; that for `Nc1nc(F)nc2c1ncn2[C@@H]1O[C@H](CO)[C@@H](O)[C@@H]1O` [fludarabine] + CC(C)CCN1c2nc(Nc3cc(F)c(O)c(F)c3)ncc2N(C)C(=O)C1C [BID1870] (first compound 0.2 µM, partner dose 0.2 µM), 97.4%. `CO[C@H]1C[C@@H]2CC[C@@H](C)[C@@](O)(O2)C(=O)C(=O)N2CCCC[C@H]2C(=O)O[C@H]([C@H](C)C[C@@H]2CC[C@@H](OCCO)[C@H](OC)C2)CC(=O)[C@H](C)/C=C(\C)[C@@H](O)[C@@H](OC)C(=O)[C@H](C)C[C@H](C)/C=C/C=C/C=C/1C` [everolimus] + COc1ccc(-c2ccc3c(N4CCOCC4)nc(N4C[C@@H](C)O[C@@H](C)C4)nc3n2)cc1CO [KU0063794] (first compound 0.02 µM, partner dose 0.02 µM) gave a cell count of 78.5%. Take `CC(=O)O[C@@]12CO[C@@H]1C[C@H](O)[C@@]1(C)C(=O)[C@H](O)C3=C(C)[C@@H](OC(=O)[C@H](O)[C@@H](NC(=O)OC(C)(C)C)c4ccccc4)C[C@@](O)([C@@H](OC(=O)c4ccccc4)[C@H]21)C3(C)C` [Docetaxel] + CCN(CC)CCCCNc1ncc2cc(-c3cc(OC)cc(OC)c3)c(NC(=O)NC(C)(C)C)nc2n1 [PD173074] (first compound 0.0001 µM, partner dose 0.1 µM): the cell count was 46.3%.

In turn, `Nc1nc(F)nc2c1ncn2[C@@H]1O[C@H](CO)[C@@H](O)[C@@H]1O` [fludarabine] + CN(NC(=O)CC(=O)NN(C)C(=S)c1ccccc1)C(=S)c1ccccc1 [STA4783] (first compound 0.2 µM, partner dose 0.006 µM) displayed a cell count of 51.6%. As to `Nc1ncn([C@H]2C[C@H](O)[C@@H](CO)O2)c(=O)n1` [decitabine] + c1cc(-c2cnn3cc(-c4ccc(OCCN5CCCCC5)cc4)cnc23)ccn1 [Dorsomorphin] (first compound 0.1 µM, partner dose 0.4 µM), the cell count was 114%. `CC(=O)c1c(C)c2cnc(Nc3ccc(N4CCNCC4)cn3)nc2n(C2CCCC2)c1=O` [palbociclib] + COc1cc(N2CCC(N3CCN(C)CC3)CC2)ccc1Nc1ncc(Cl)c(Nc2ccccc2S(=O)(=O)C(C)C)n1 [NVP-TAE684] (first compound 0.04 µM, partner dose 0.08 µM) had a cell count of 78.9%. `CC(=O)O[C@@]12CO[C@@H]1C[C@H](O)[C@@]1(C)C(=O)[C@H](O)C3=C(C)[C@@H](OC(=O)[C@H](O)[C@@H](NC(=O)OC(C)(C)C)c4ccccc4)C[C@@](O)([C@@H](OC(=O)c4ccccc4)[C@H]21)C3(C)C` [Docetaxel] + CCCCCCCCCCCC1=C(O)C(=O)C=C(O)C1=O [Embelin] (first compound 0.0001 µM, partner dose 1.2 µM) yielded a cell count of 32.3%.

The compound `Nc1nc(F)nc2c1ncn2[C@@H]1O[C@H](CO)[C@@H](O)[C@@H]1O` [fludarabine] + NCC(=O)Nc1ccc(-n2nc(C(F)(F)F)cc2-c2ccc3c(ccc4ccccc43)c2)cc1 [OSU03012] (first compound 0.2 µM, partner dose 1 µM) had a cell count of 90.7%. Compound `Nc1ccn([C@@H]2O[C@H](CO)[C@@H](O)C2(F)F)c(=O)n1` [gemcitabine] + COc1cc(Nc2ncc(F)c(Nc3ccc4c(n3)NC(=O)C(C)(C)O4)n2)cc(OC)c1OC [Tamatinib] (first compound 0.0004 µM, partner dose 0.4 µM) gave a cell count of 63.7%.

`Nc1nc(F)nc2c1ncn2[C@@H]1O[C@H](CO)[C@@H](O)[C@@H]1O` [fludarabine] + COc1cc(N2CCC(N3CCN(C)CC3)CC2)ccc1Nc1ncc(Cl)c(Nc2ccccc2S(=O)(=O)C(C)C)n1 [NVP-TAE684] (first compound 0.2 µM, partner dose 0.08 µM) displayed a cell count of 108%. The result for `Nc1ncn([C@H]2C[C@H](O)[C@@H](CO)O2)c(=O)n1` [decitabine] + COc1cc(Nc2ncc(F)c(Nc3ccc4c(n3)NC(=O)C(C)(C)O4)n2)cc(OC)c1OC [Tamatinib] (first compound 0.1 µM, partner dose 0.4 µM) reads 61%; that for `Nc1ccn([C@@H]2O[C@H](CO)[C@@H](O)C2(F)F)c(=O)n1` [gemcitabine] + Cc1ccc(NC(=O)c2cccc(N(C)C)c2)cc1NC(=O)c1ccc(O)cc1 [ZM336372] (first compound 0.0004 µM, partner dose 2 µM), 77.6%; that for `Nc1ncn([C@H]2C[C@H](O)[C@@H](CO)O2)c(=O)n1` [decitabine] + NCC(=O)Nc1ccc(-n2nc(C(F)(F)F)cc2-c2ccc3c(ccc4ccccc43)c2)cc1 [OSU03012] (first compound 0.1 µM, partner dose 1 µM), 79.6%.
